Results from the supplement of paper PMC9446081.
Screen size: about 39,000 compounds; about 220 (0.56%) showed activity. Some of the results follow.

Tested on: Escherichia coli K-12 BW25113
Test: relative growth (OD600 normalised to plate interquartile mean) (fraction); higher = less growth inhibition, active = 0.2 or less
Details: 50 µM; LB; incubation time: overnight (16-24 h)
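Further: static incubation at 37 °C against the wild-type strain, values averaged over two biological replicates.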

SMILES | relative growth
CCN1C(=O)S[C@@H](CC(=O)O)C1=O | inactive: 1.03
C[N+](C)(C)CCOC(N)=O.[Cl-] | inactive: 1.12
C[C@@H]1CN([C@@H](C)CO)C(=O)c2cc(NC(=O)Nc3cccc4ccccc34)ccc2O[C@@H]1CN(C)C(=O)Nc1ccc(C(F)(F)F)cc1 | inactive: 1.01
CCS(=O)(=O)N1C[C@]2(C1)CN([C@@H](CO)c1c2c2ccc(cc2n1C)OC)C(=O)c1ccc(cc1)F | inactive: 1.06
COc1ccc(NC(=O)N2C[C@H](O)COC[C@H]3O[C@@H](CC(=O)NCc4ccccc4OC)CC[C@@H]32)cc1 | inactive: 0.994
CCCNC(=O)N(C)C[C@@H]1Oc2cc(C#Cc3ccccn3)ccc2S(=O)(=O)N([C@H](C)CO)C[C@@H]1C | inactive: 0.986
C[C@H]1CN([C@@H](C)CO)C(=O)c2cccc(NS(=O)(=O)c3cn(C)cn3)c2O[C@H]1CN(C)CC1CC1 | inactive: 1
Cl.OC(CNCC(O)C1CCc2cc(F)ccc2O1)C1CCc2cc(F)ccc2O1 (stereo not given) | inactive: 1.06
CO[C@H]1CN(C)C(=O)c2cc(NC(=O)Nc3ccccc3)ccc2OC[C@H](C)N(C(=O)CN(C)C)C[C@H]1C | inactive: 1.01
CC(=O)C1CCC2C3CC(C)C4=CC(=O)CCC4(C)C3C(O)CC12C (stereo not given) | inactive: 0.935
COC(=O)c1c(C#N)c(N)nc2c1CCC2 | inactive: 0.967
C=CC[C@@H](CC(=O)NCCO)C(=O)N[C@@H](COC(=O)[C@H](CC=C)CC(=O)OC(C)(C)C)Cc1ccccc1 | inactive: 0.968
C[C@@H]1CN([C@@H](C)CO)C(=O)c2cc(C#Cc3ccccc3F)cnc2O[C@@H]1CN(C)C(=O)C1CCOCC1 | inactive: 1.02
COc1ccc(CNC(=O)C[C@@H]2CC[C@@H]3[C@H](COc4ccc(NC(=O)C5CC5)cc4C(=O)N3C)O2)cc1 | inactive: 1.01
Cc1ccc(S(=O)(=O)N(C)C[C@H]2OCCCC[C@@H](C)Oc3ccc(NC(=O)Nc4ccc(F)cc4)cc3C(=O)N([C@H](C)CO)C[C@H]2C)cc1 | inactive: 1.06
C[C@@H]1CN([C@H](C)CO)C(=O)Cc2cc(NS(C)(=O)=O)ccc2O[C@H]1CN(C)C(=O)Nc1ccc(C(F)(F)F)cc1 | inactive: 0.926
O=C1NCCc2c(O)cccc21 | inactive: 1.02
C#CC1(O)CCC2C3CCC4=CCCCC4C3C(=C)CC21CC (stereo not given) | inactive: 0.991
COCC#Cc1ccc2c(c1)O[C@H](CN(C)C(=O)Nc1ccc(OC)cc1)[C@@H](C)CN([C@@H](C)CO)S2(=O)=O | inactive: 1.02
C[C@H]1CN([C@@H](C)CO)C(=O)Cc2cc(NC(=O)NC3CCCCC3)ccc2O[C@H]1CN(C)Cc1ccc(C(F)(F)F)cc1 | inactive: 0.982

SMILES | relative growth
COc1cc(/C=C/C(=O)C2=C(NCCc3ccccc3)S[C@H](c3ccc(O)c(OC)c3)CC2=O)ccc1O | inactive: 1.04
Cc1ccc(-c2cnc3c(c2)C(=O)N([C@@H](C)CO)C[C@@H](C)[C@@H](CN(C)C(=O)Cc2cccnc2)O3)cc1 | inactive: 0.973
CCC(=O)N1C[C@]2(CN(C2)S(=O)(=O)C)c2c(n(c3cc(ccc23)OC)C)[C@H]1CO | inactive: 0.994
C[C@@H]1CCCCO[C@@H](CN(C)C(=O)CCCN(C)C)[C@@H](C)CN([C@H](C)CO)C(=O)c2cc(NC(=O)Nc3ccc(F)cc3)ccc2O1 | inactive: 0.986
O=C(C[C@H]1CC[C@@H]2[C@H](COC[C@@H](O)CN2C(=O)Nc2ccc3c(c2)OCO3)O1)N1CCN(c2ccccc2)CC1 | inactive: 1.03
CO[C@H]1C[C@@H](O[C@@H]2/C(C)=C/C[C@@H]3C[C@@H](C[C@]4(CC[C@H](C)[C@@H](C5CCCCC5)O4)O3)OC(=O)[C@@H]3C=C(C)/C(=N/O)[C@H]4OC/C(=C\C=C\[C@@H]2C)[C@]43O)O[C@@H](C)[C@@H]1O | inactive: 0.946
CC(=O)N1[C@H](Cn2cncn2)C[C@H]2CN(S(C)(=O)=O)CC[C@H]21 | inactive: 0.956
Cc1noc(C)c1S(=O)(=O)Nc1ccc2c(c1)CC(=O)N([C@H](C)CO)C[C@H](C)[C@H](CN(C)S(=O)(=O)c1ccc(Cl)cc1)O2 | inactive: 0.992
C[C@@H]1CN([C@H](C)CO)C(=O)c2cccc(NS(=O)(=O)c3cccs3)c2O[C@@H]1CN(C)S(=O)(=O)c1ccccc1 | inactive: 0.994
O=C1CN(S(=O)(=O)Cc2ccccc2)C[C@H]2[C@H](c3ccc(C#Cc4cccc(F)c4)cc3)[C@H](CO)N12 | inactive: 0.992
CCCC(=O)OC1(C(=O)CO)CCC2C3CCC4=CC(=O)CCC4(C)C3C(O)CC21C (stereo not given) | inactive: 1.08
C[C@H](CO)N1C[C@H](C)[C@H](CN(C)Cc2ccccc2)Oc2ccc(NC(=O)Nc3ccc(C(F)(F)F)cc3)cc2C1=O | inactive: 0.982
Cc1ccc(S(=O)(=O)Nc2ccc3c(c2)CC(=O)N([C@@H](C)CO)C[C@H](C)[C@@H](CN(C)C(=O)Nc2cccc4ccccc24)O3)cc1 | inactive: 1.01
CC(C)NC(=O)N(C)C[C@@H]1Oc2c(NC(=O)Nc3ccc4c(c3)OCO4)cccc2C(=O)N([C@@H](C)CO)C[C@@H]1C | inactive: 0.998
Cc1noc(C)c1S(=O)(=O)Nc1ccc2c(c1)C(=O)N([C@H](C)CO)C[C@@H](C)[C@@H](CN(C)Cc1ccncc1)O2 | inactive: 0.974
C[C@@H]1CN([C@H](C)CO)C(=O)c2cc(NC(=O)Nc3ccccc3)ccc2O[C@@H]1CN(C)CC1CCCCC1 | inactive: 0.983
O=C(Nc1ncc(SCCN2CCCC2)s1)[C@]1(c2ccc(S(=O)(=O)C3CC3)cc2)C[C@H]1C1CCCCC1 | inactive: 0.98
C[C@@H]1CN([C@H](C)CO)C(=O)Cc2cc(NS(=O)(=O)c3cn(C)cn3)ccc2O[C@@H]1CN(C)Cc1ccccc1 | inactive: 1.03
C[C@@H](O)C#Cc1ccc2c(c1)O[C@H](CN(C)C(=O)Cc1ccccn1)[C@@H](C)CN([C@@H](C)CO)S2(=O)=O | inactive: 1
CC(C)NC(=O)N(C)C[C@@H]1OCCCC[C@@H](C)Oc2ccc(NC(=O)Nc3ccc(C(F)(F)F)cc3)cc2C(=O)N([C@@H](C)CO)C[C@H]1C | inactive: 0.967
